According to patent publication US5550212A, “Analogues of hGH-RH(1-29)NH2 having antagonistic activity” (The Administrators of the Tulane Educational Fund, priority 1993, dated 1996):
Not every detail of the peptide structures is certain; ends, links or a residue may be inferred. Non-standard residues stand in square brackets, D forms with d. Residues, ends and D or L forms follow the SMILES beside them. *: point of attachment. Acetyl(1-naphthyl) = O=C(Cc1cccc2ccccc12)*; Acetyl(2-naphthyl) = O=C(Cc1ccc2ccccc2c1)*; Phe(4-Cl) = N[C@@H](Cc1ccc(Cl)cc1)C(=O)O; 1Naphthoyl = O=C(c1cccc2ccccc12)*; Agmatine = N=C(N)NCCCCN*; Isobutyryl = CC(C)C(=O)*; Nle = CCCC[C@H](N)C(=O)O; Abu = CC[C@H](N)C(=O)O; X2 = O=C(CI)*

System: hGH-RH(1-29)NH2 induced GH release
Test: Superfused rat pituitary system: inhibition of hGH-RH(1-29)NH2 induced GH release
Assay type: cell-based
Conditions: for Inhibition of GH release (%) 0 min: 0 min response; for Inhibition of GH release (%) 30 min: 30 min response; for Inhibition of GH release (%) 60 min: 60 min response; for Inhibition of GH release (%) 120 min: 120 min response
Experimental: Superfused Rat Pituitary System. The analogues were tested in vitro in a test described earlier (S. Vigh and A. V. Schally, Peptides 5:241-[…], 1984) with modification ([…] and […]. 90:2146-2149, 1993). Briefly, the cells are preincubated with peptides for 9 minutes (3 mL) at various concentrations. Immediately after the incubation, 1 nM hGH-RH(1-29)NH2 is administered for 3 minutes (1 mL) [0 minute response]. To check the duration of the antagonistic effect of the analogue, 1 nM hGH-RH(1-29)NH2 is applied 30, 60, 90, and 120 minutes later for 3 minutes [30, 60, 90, 120 min responses]. Net integral values of the GH responses are evaluated. GH responses are compared to and expressed as percent of the original GH response induced by 1 nM GH-RH(1-29)NH2. The effect of the new antagonists are compared to that of [Ac-[…] ]hGH-RH(1-29)NH2, the "Standard antagonist". Growth Hormone Radio-immunoassay. Rat GH levels in aliquots of undiluted and diluted superfusion samples were measured by double-antibody radioimmunoassay using materials supplied by the National Hormone and Pituitary Program, Baltimore, Md. The results of RIA were analyzed with a computer program developed in our institute (V. Csernus and A. V. Schally, Harwood Academic (Greenstein, B. C. ed., London, pp. 71-109, 1991), hereby incorporated by reference. Inter-assay variation was less than 15% and intra-assay variation was less than 10%.

Row | SMILES | Inhibition of GH release (%) 0 min (dose 100 nM) | Inhibition of GH release (%) 30 min (dose 100 nM) | Inhibition of GH release (%) 60 min (dose 100 nM) | Inhibition of GH release (%) 0 min (dose 30 nM) | Inhibition of GH release (%) 30 min (dose 30 nM) | Inhibition of GH release (%) 60 min (dose 30 nM) | Inhibition of GH release (%) 0 min (dose 300 nM) | Inhibition of GH release (%) 30 min (dose 300 nM) | Inhibition of GH release (%) 0 min (dose 3 nM) | Inhibition of GH release (%) 30 min (dose 3 nM) | Inhibition of GH release (%) 60 min (dose 3 nM) | Inhibition of GH release (%) 120 min (dose 30 nM)
1 | CCCC[C@H](NC(=O)[C@@H](NC(=O)[C@H](CC(=O)O)NC(=O)[C@H](CCC(N)=O)NC(=O)[C@H](CC(C)C)NC(=O)[C@H](CC(C)C)NC(=O)[C@H](CCCCN)NC(=O)[C@H](CCCNC(=N)N)NC(=O)[C@H](CC)NC(=O)[C@H](CO)NC(=O)[C@H](CC(C)C)NC(=O)[C@H](CCC(N)=O)NC(=O)[C@H](CC)NC(=O)[C@H](CC(C)C)NC(=O)[C@@H](NC(=O)[C@H](CCCCN)NC(=O)[C@H](CCCNC(=N)N)NC(=O)[C@H](Cc1ccc(O)cc1)NC(=O)[C@H](CO)NC(=O)[C@H](CC(N)=O)NC(=O)[C@@H](NC(=O)[C@H](Cc1ccc(Cl)cc1)NC(=O)[C@@H](NC(=O)[C@H](C)NC(=O)[C@H](CC(=O)O)NC(=O)[C@@H](CCCNC(=N)N)NC(=O)[C@H](Cc1ccc(O)cc1)NC(=O)C(C)C)[C@@H](C)CC)[C@@H](C)O)C(C)C)[C@@H](C)CC)C(=O)N[C@@H](CO)C(=O)N[C@@H](CCCNC(=N)N)C(N)=O [Peptide 16, [Ibu^0,D-Arg^2,Phe(pCl)^6, Abu^15,19,Nle^27]hGH-RH(1-29)NH2] (Isobutyryl-Y[dR]DAI[Phe(4-Cl)]TNSYRKVL[Abu]QLS[Abu]RKLLQDI[Nle]SR-NH2) | 7.8% | 18.7% | 14.7% | – | – | – | – | – | – | – | – | –
2 | CCCC[C@H](NC(=O)[C@@H](NC(=O)[C@H](CC(=O)O)NC(=O)[C@H](CCC(N)=O)NC(=O)[C@H](CC(C)C)NC(=O)[C@H](CC(C)C)NC(=O)[C@H](CCCCN)NC(=O)[C@H](CCCNC(=N)N)NC(=O)[C@H](CC)NC(=O)[C@H](CO)NC(=O)[C@H](CC(C)C)NC(=O)[C@H](CCC(N)=O)NC(=O)[C@H](CC)NC(=O)[C@H](CC(C)C)NC(=O)[C@@H](NC(=O)[C@H](CCCCN)NC(=O)[C@H](CCCNC(=N)N)NC(=O)[C@H](Cc1ccc(O)cc1)NC(=O)[C@H](CO)NC(=O)[C@H](CC(N)=O)NC(=O)[C@@H](NC(=O)[C@H](Cc1ccc(Cl)cc1)NC(=O)[C@@H](NC(=O)[C@H](C)NC(=O)[C@H](CC(=O)O)NC(=O)[C@@H](CCCNC(=N)N)NC(=O)[C@H](CCC(=O)O)NC(=O)C(C)C)[C@@H](C)CC)[C@@H](C)O)C(C)C)[C@@H](C)CC)C(=O)N[C@@H](CO)C(=O)N[C@@H](CCCNC(=N)N)C(N)=O [Peptide 17, [Ibu^0 -Glu^1,D-Arg^2,phe(pCl)^6,Abu^15,19,Nle^27]hGH-RH(1-29)NH2] (Isobutyryl-E[dR]DAI[Phe(4-Cl)]TNSYRKVL[Abu]QLS[Abu]RKLLQDI[Nle]SR-NH2) | – | – | – | 43.3% | 39.3% | 35.9% | – | – | – | – | – | –
3 | CCCC[C@H](NC(=O)[C@@H](NC(=O)[C@H](CC(=O)O)NC(=O)[C@H](CCC(N)=O)NC(=O)[C@H](CC(C)C)NC(=O)[C@H](CC(C)C)NC(=O)[C@H](CCCCN)NC(=O)[C@H](CCCNC(=N)N)NC(=O)[C@H](C)NC(=O)[C@H](CO)NC(=O)[C@H](CC(C)C)NC(=O)[C@H](CCC(N)=O)NC(=O)[C@H](CC)NC(=O)[C@H](CC(C)C)NC(=O)[C@@H](NC(=O)[C@H](CCCCN)NC(=O)[C@H](CCCNC(=N)N)NC(=O)[C@H](Cc1ccc(O)cc1)NC(=O)[C@H](CO)NC(=O)[C@H](CC(N)=O)NC(=O)[C@@H](NC(=O)[C@H](Cc1ccc(Cl)cc1)NC(=O)[C@@H](NC(=O)[C@H](C)NC(=O)[C@H](CC(=O)O)NC(=O)[C@@H](CCCNC(=N)N)NC(=O)[C@H](Cc1ccc(O)cc1)NC(=O)CI)[C@@H](C)CC)[C@@H](C)O)C(C)C)[C@@H](C)CC)C(=O)N[C@@H](CO)C(=O)NCCCCNC(=N)N [Peptide 21] (X2-Y[dR]DAI[Phe(4-Cl)]TNSYRKVL[Abu]QLSARKLLQDI[Nle]S-Agmatine) | – | – | – | – | – | – | 89.3% | 32.9% | – | – | – | –
4 | CCCC[C@H](NC(=O)[C@@H](NC(=O)[C@H](CC(=O)O)NC(=O)[C@H](CCC(N)=O)NC(=O)[C@H](CC(C)C)NC(=O)[C@H](CC(C)C)NC(=O)[C@H](CCCCN)NC(=O)[C@H](CCCNC(=N)N)NC(=O)[C@H](C)NC(=O)[C@H](CO)NC(=O)[C@H](CC(C)C)NC(=O)[C@H](CCC(N)=O)NC(=O)[C@H](CC)NC(=O)[C@H](CC(C)C)NC(=O)[C@@H](NC(=O)[C@H](CCCCN)NC(=O)[C@H](CCCNC(=N)N)NC(=O)[C@H](Cc1ccc(O)cc1)NC(=O)[C@H](CO)NC(=O)[C@H](CC(N)=O)NC(=O)[C@@H](NC(=O)[C@H](Cc1ccc(Cl)cc1)NC(=O)[C@@H](NC(=O)[C@H](C)NC(=O)[C@H](CC(=O)O)NC(=O)[C@@H](CCCNC(=N)N)NC(=O)[C@H](Cc1c[nH]cn1)NC(=O)Cc1cccc2ccccc12)[C@@H](C)CC)[C@@H](C)O)C(C)C)[C@@H](C)CC)C(=O)N[C@@H](CC(=O)O)C(=O)NCCCCNC(=N)N [Peptide 22, [Nac^0 -His^1,D-Arg^2,Phe(pCl)^6,Abu^15,Nle^27,Asp^28]hGH-RH(1-28)Agm] ({Acetyl(1-naphthyl)}-H[dR]DAI[Phe(4-Cl)]TNSYRKVL[Abu]QLSARKLLQDI[Nle]D-Agmatine) | – | – | – | 98.9% | 8.2% | 53.2% | – | – | 45.3% | 12.4% | 25.1% | –
5 | CCCC[C@H](NC(=O)[C@@H](NC(=O)[C@H](CC(=O)O)NC(=O)[C@H](CCC(N)=O)NC(=O)[C@H](CC(C)C)NC(=O)[C@H](CC(C)C)NC(=O)[C@H](CCCCN)NC(=O)[C@H](CCCNC(=N)N)NC(=O)[C@H](C)NC(=O)[C@H](CO)NC(=O)[C@H](CC(C)C)NC(=O)[C@H](CCC(N)=O)NC(=O)[C@H](CC)NC(=O)[C@H](CC(C)C)NC(=O)[C@@H](NC(=O)[C@H](CCCCN)NC(=O)[C@H](CCCNC(=N)N)NC(=O)[C@H](Cc1ccc(O)cc1)NC(=O)[C@H](CO)NC(=O)[C@H](CC(N)=O)NC(=O)[C@@H](NC(=O)[C@H](Cc1ccc(Cl)cc1)NC(=O)[C@@H](NC(=O)[C@H](C)NC(=O)[C@H](CC(=O)O)NC(=O)[C@@H](CCCNC(=N)N)NC(=O)[C@H](Cc1ccc(O)cc1)NC(=O)Cc1cccc2ccccc12)[C@@H](C)CC)[C@@H](C)O)C(C)C)[C@@H](C)CC)C(=O)N[C@@H](CC(=O)O)C(=O)NCCCCNC(=N)N [Peptide 23] ({Acetyl(1-naphthyl)}-Y[dR]DAI[Phe(4-Cl)]TNSYRKVL[Abu]QLSARKLLQDI[Nle]D-Agmatine) | – | – | – | 89.3% | 85.1% | 71.6% | – | – | 51.5% | 56.6% | 32.5% | 63.8%
6 | CCCC[C@H](NC(=O)[C@@H](NC(=O)[C@H](CC(=O)O)NC(=O)[C@H](CCC(N)=O)NC(=O)[C@H](CC(C)C)NC(=O)[C@H](CC(C)C)NC(=O)[C@H](CCCCN)NC(=O)[C@H](CCCNC(=N)N)NC(=O)[C@H](C)NC(=O)[C@H](CO)NC(=O)[C@H](CC(C)C)NC(=O)[C@H](CCC(N)=O)NC(=O)[C@H](CC)NC(=O)[C@H](CC(C)C)NC(=O)[C@@H](NC(=O)[C@H](CCCCN)NC(=O)[C@H](CCCNC(=N)N)NC(=O)[C@H](Cc1ccc(O)cc1)NC(=O)[C@H](CO)NC(=O)[C@H](CC(N)=O)NC(=O)[C@@H](NC(=O)[C@H](Cc1ccc(Cl)cc1)NC(=O)[C@@H](NC(=O)[C@H](C)NC(=O)[C@H](CC(=O)O)NC(=O)[C@@H](CCCNC(=N)N)NC(=O)[C@H](Cc1ccc(O)cc1)NC(=O)Cc1ccc2ccccc2c1)[C@@H](C)CC)[C@@H](C)O)C(C)C)[C@@H](C)CC)C(=O)N[C@@H](CC(=O)O)C(=O)NCCCCNC(=N)N [Peptide 24] ({Acetyl(2-naphthyl)}-Y[dR]DAI[Phe(4-Cl)]TNSYRKVL[Abu]QLSARKLLQDI[Nle]D-Agmatine) | – | – | – | 83.6% | 64.4% | 6.7% | – | – | 0% | 33.3% | 0% | 60%
7 | CCCC[C@H](NC(=O)[C@@H](NC(=O)[C@H](CC(=O)O)NC(=O)[C@H](CCC(N)=O)NC(=O)[C@H](CC(C)C)NC(=O)[C@H](CC(C)C)NC(=O)[C@H](CCCCN)NC(=O)[C@H](CCCNC(=N)N)NC(=O)[C@H](C)NC(=O)[C@H](CO)NC(=O)[C@H](CC(C)C)NC(=O)[C@H](CCC(N)=O)NC(=O)[C@H](CC)NC(=O)[C@H](CC(C)C)NC(=O)[C@@H](NC(=O)[C@H](CCCCN)NC(=O)[C@H](CCCNC(=N)N)NC(=O)[C@H](Cc1ccc(O)cc1)NC(=O)[C@H](CO)NC(=O)[C@H](CC(N)=O)NC(=O)[C@@H](NC(=O)[C@H](Cc1ccc(Cl)cc1)NC(=O)[C@@H](NC(=O)[C@H](C)NC(=O)[C@H](CC(=O)O)NC(=O)[C@@H](CCCNC(=N)N)NC(=O)[C@H](Cc1ccc(O)cc1)NC(=O)c1cccc2ccccc12)[C@@H](C)CC)[C@@H](C)O)C(C)C)[C@@H](C)CC)C(=O)N[C@@H](CC(=O)O)C(=O)NCCCCNC(=N)N [Peptide 25] (1Naphthoyl-Y[dR]DAI[Phe(4-Cl)]TNSYRKVL[Abu]QLSARKLLQDI[Nle]D-Agmatine) | – | – | – | 84.5% | 32% | 42.7% | – | – | – | – | – | 32.8%
